Data published in the supplement of paper PMC3334620.
The full ranking holds about 33,000 sequences; the median of “E-score (-0.5 to 0.5)” is about -0.054, and the highest 2% start at about 0.39. The list shows a part of the results.

target: Ylr278c (UniProt Q05854); experiment: PBM E-score (8-mer binding enrichment) (E-score (-0.5 to 0.5)); higher = stronger / more preferred TF binding; most listed sequences are background and not binding sites; conditions: protein concentration: 200 nM; construct: GST-DNA-binding domain
Protocol: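 Universal 'all 10-mer' protein binding microarrays (Agilent AMADID 015681) probed with GST-tagged S. cerevisiae TFs (full-length or DBD) made by in vitro transcription/translation (PURExpress), about 100-200 nM. Bound TF was detected with fluorescent anti-GST. Each ungapped 8-mer (which stands for itself and its reverse complement) is scored by the PBM enrichment score (E-score), a modified Wilcoxon-Mann-Whitney statistic from -0.5 to +0.5, computed with the Universal PBM Analysis Suite. Scale: above 0.35 generally sequence-specific binding.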

| Sequence | PBM E-score |
| --- | --- |
| AAGAGATG | -0.111 |
| GGTGCCAA | -0.224 |
| ACACTTGG | -0.0964 |
| ATCGGCTC | 0.159 |
| ACTTCGAG | 0.0317 |
| AGACGTTA | -0.276 |
| GACCTTGA | -0.218 |
| AGGTAGGG | -0.216 |
| AAACATCA | -0.139 |
| AGAATTCC | 0.283 |
| CTAGCTCA | -0.289 |
| CATGGATC | 0.0628 |
| AGTATGCC | 0.076 |
| AGGAGCAA | -0.0147 |
| CTGGTCGA | -0.224 |
| GATAGTTA | 0.0736 |
| AATTCGAA | -0.0214 |
| ACGGTTTC | 0.0437 |
| ACGTCTCA | -0.131 |
| GCACATAC | -0.0502 |
| CACGTGAG | -0.144 |
| GCCCGATA | 0.0679 |
| CCGCAAAG | 0.131 |
| CGTAGTAA | -0.0394 |
| AATCCAGG | -0.00578 |

| Sequence | PBM E-score |
| --- | --- |
| AATGCGAT | -0.0987 |
| ACAGACGA | -0.081 |
| TCCGAGCA | 0.34 |
| ACCTAGCA | -0.14 |
| CCAAAGGC | -0.192 |
| AAGATATG | -0.0865 |
| GAAGGCAA | -0.0238 |
| ACGTCAGC | -0.154 |
| AGCCAATC | 0.105 |
| GCTATGAC | -0.0428 |
| CCGTCACG | 0.238 |
| GAGTGGAA | 0.155 |
| AGGGCCAA | -0.349 |
| AGCCCATC | -0.103 |
| ACGACACT | -0.111 |
| ACAGTCGC | -0.267 |
| CCACTCTC | 0.0517 |
| CCGACCAA | 0.142 |
| GGGCAGCA | -0.121 |
| AGGCTCGA | -0.174 |
| GCAAGACA | 0.00062 |
| GTTAATAA | 0.0868 |
| CTGTCGAC | -0.158 |
| CCACGGCG | 0.187 |
| TGGCCCAA | -0.207 |

| Sequence | PBM E-score |
| --- | --- |
| ACGAGTGG | -0.0151 |
| AGTGATTG | -0.165 |
| CCGGTGGA | 0.339 |
| ATTCTAGA | -0.171 |
| ACGTCGTA | -0.131 |
| AAGGTAGG | -0.0347 |
| GAGGAAAA | 0.0745 |
| CGATCATA | -0.00591 |
| AACGGTCT | -0.0855 |
| AAACACTG | -0.00492 |
| CAGGTCAA | -0.143 |
| GGACGCCC | 0.25 |
| TGGTGAAA | -0.0989 |
| CCAGGTCG | -0.317 |
| TAAAACCA | -0.191 |
| ATCTGCGC | -0.0599 |
| ACGCGCTA | -0.0327 |
| GCATGCAA | -0.00913 |
| CAGGCAAG | -0.203 |
| CTGCAGCA | -0.151 |
| CGCCGCCC | 0.284 |
| CTTCAGTA | -0.0596 |
| GGGTCTAC | -0.0729 |
| GGTCAGGA | -0.00867 |
| GGATAGCA | 0.0343 |

| Sequence | PBM E-score |
| --- | --- |
| CTTCCTAC | -0.214 |
| CTGTTAGA | -0.133 |
| CTAACTTA | 0.00352 |
| GAACCAGC | -0.126 |
| ATAGTGTG | -0.0618 |
| GCACCTGC | 0.0187 |
| CACGGATC | 0.242 |
| ACCTAAAT | 0.0912 |
| ATCGCAGA | -0.164 |
| ACTAAGCG | 0.031 |
| GTGAGTGA | -0.153 |
| ACCCTAAC | -0.114 |
| ATCGTTTG | -0.0457 |
| AATGATAG | 0.123 |
| GCCAAAGC | -0.166 |
| GACTACAC | -0.109 |
| AAATGGTC | 0.0198 |
| TACCGACA | 0.224 |
| ATCTCAGC | -0.0169 |
| AAAGCCAT | -0.02 |
| CGCATTCC | 0.138 |
| CACGGCAA | 0.182 |
| CACAGGGC | -0.203 |
| AACATCAG | -0.183 |
| TACGGAAA | 0.3 |

| Sequence | PBM E-score |
| --- | --- |
| CGTGCCCA | -0.0667 |
| CTATTTTA | -0.0891 |
| ATCGTTAA | 0.0168 |
| CCAACAAG | -0.162 |
| AGTGGTCC | 0.124 |
| CCTGGTAC | -0.243 |
| GTAATGTA | -0.177 |
| CGTTACAG | -0.196 |
| GTTACACA | -0.23 |
| AGGGTTCA | -0.3 |
| ACTGTACT | -0.249 |
| ATAATAGG | -0.0461 |
| ATCATGTC | 0.0925 |
| CTCTATTA | -0.237 |
| CAGAGGGG | -0.257 |
| AAGGCTAG | -0.233 |
| CGTTGGCC | 0.106 |
| ACCCTGTA | -0.201 |
| CCCACGAC | -0.143 |
| TCGGGGAA | 0.365 |
| CGGGTTAG | 0.156 |
| AATTGAGC | -0.127 |
| CCAACTCC | 0.347 |
| GAGTGAGC | -0.125 |
| GGGAACAA | 0.0828 |

| Sequence | PBM E-score |
| --- | --- |
| CGAGGGAA | 0.00635 |
| CTATTGGC | -0.108 |
| AGTCCGCG | 0.369 |
| AAGGTCAG | -0.187 |
| AAGCACTC | 0.0364 |
| GCGGAGCA | 0.376 |
| AATTTCAC | -0.0766 |
| ACTCGTCT | -0.116 |
| ACATCTTA | -0.305 |
| CGCATAGC | 0.0319 |
| ACGAAGAT | -0.222 |
| ACACTGTC | -0.113 |
| CCTTGCGC | -0.0833 |
| CCTACACG | -0.223 |
| ACAGCAGA | -0.107 |
| CCAAAGGG | -0.0737 |
| GGACATCC | 0.309 |
| GCTTCCCA | -0.187 |
| CTATCAAC | 0.0107 |
| TTAATGAA | -0.0137 |
| CTATGCTA | -0.195 |
| ATATCGAT | -0.0809 |
| AAAGCTTC | -0.0144 |
| ATGTTGAC | -0.0146 |
| GAGTCTAC | -0.128 |

| Sequence | PBM E-score |
| --- | --- |
| CAGGGGGA | -0.401 |
| CAGTGCAA | -0.264 |
| GTTTCTAA | 0.0238 |
| CAAATTTG | 0.0993 |
| TACACCCA | 0.0372 |
| GGCGTTTA | 0.213 |
| GTTTACTA | -0.0491 |
| ATAAATTA | 0.112 |
| GTTGACGA | -0.183 |
| CACCATAC | 0.0327 |
| ACCAGTCA | -0.036 |
| CCAATCCC | 0.149 |
| CAACTCTC | -0.0583 |
| AAGTTAAC | -0.121 |
| CGTATGTC | -0.00839 |
| ACTATCTC | -0.101 |
| AAATTGCA | -0.055 |
| ATTGAGTC | -0.0642 |
| GTCTACGA | -0.251 |
| AGTTGTCC | 0.0866 |
| CGGAACGA | 0.266 |
| GTCTAACA | -0.0407 |
